B1: TGFR/TF/IL-15:CD16scFv/IL-15RαSu/IL-21 protein complex (other)
chain 1: IPPHVQKSVNNDMIVTDNNGAVKFPQLCKFCDVRFSTCDNQKSCMSNCSITSICEKPQEVCVAVWRKNDENITLETVCHDPKLPYHDFILEDAASPKCIMKEKKKPGETFFMCSCSSDECNDNIIFSEEYNTSNPDGGGGSGGGGSGGGGSIPPHVQKSVNNDMIVTDNNGAVKFPQLCKFCDVRFSTCDNQKSCMSNCSITSICEKPQEVCVAVWRKNDENITLETVCHDPKLPYHDFILEDAASPKCIMKEKKKPGETFFMCSCSSDECNDNIIFSEEYNTSNPDSGTTNTVAAYNLTWKSTNFKTILEWEPKPVNQVYTVQISTKSGDWKSKCFYTTDTECDLTDEIVKDVKQTYLARVFSYPAGNVESTGSAGEPLYENSPEFTPYLETNLGQPTIQSFEQVGTKVNVTVEDERTLVRRNNTFLSLRDVFGKDLIYTLYYWKSSSSGKKTAKTNTNEFLIDVDKGENYCFSVQAVIPSRTVNRKSTDSPVECMGQEKGEFRE[about 120 residues not spelt out]
chain 2: not shown
B2: TGFβR/TF/IL-15:TGFβR/IL-15RαSu protein complex (other)
chain 1: IPPHVQKSVNNDMIVTDNNGAVKFPQLCKFCDVRFSTCDNQKSCMSNCSITSICEKPQEVCVAVWRKNDENITLETVCHDPKLPYHDFILEDAASPKCIMKEKKKPGETFFMCSCSSDECNDNIIFSEEYNTSNPDGGGGSGGGGSGGGGSIPPHVQKSVNNDMIVTDNNGAVKFPQLCKFCDVRFSTCDNQKSCMSNCSITSICEKPQEVCVAVWRKNDENITLETVCHDPKLPYHDFILEDAASPKCIMKEKKKPGETFFMCSCSSDECNDNIIFSEEYNTSNPDSGTTNTVAAYNLTWKSTNFKTILEWEPKPVNQVYTVQISTKSGDWKSKCFYTTDTECDLTDEIVKDVKQTYLARVFSYPAGNVESTGSAGEPLYENSPEFTPYLETNLGQPTIQSFEQVGTKVNVTVEDERTLVRRNNTFLSLRDVFGKDLIYTLYYWKSSSSGKKTAKTNTNEFLIDVDKGENYCFSVQAVIPSRTVNRKSTDSPVECMGQEKGEFRE[about 120 residues not spelt out]
chain 2: IPPHVQKSVNNDMIVTDNNGAVKFPQLCKFCDVRFSTCDNQKSCMSNCSITSICEKPQEVCVAVWRKNDENITLETVCHDPKLPYHDFILEDAASPKCIMKEKKKPGETFFMCSCSSDECNDNIIFSEEYNTSNPDGGGGSGGGGSGGGGSIPPHVQKSVNNDMIVTDNNGAVKFPQLCKFCDVRFSTCDNQKSCMSNCSITSICEKPQEVCVAVWRKNDENITLETVCHDPKLPYHDFILEDAASPKCIMKEKKKPGETFFMCSCSSDECNDNIIFSEEYNTSNPDITCPPPMSVEHADIWVKSYSLYSRERYICNSGFKRKAGTSSLTECVLNKATNVAHWTTPSLKCIR
B3: IL-7/TF/IL-15:TGFβ Receptor II/IL-15RαSu fusion protein complex (other)
chain 1: DCDIEGKDGKQYESVLMVSIDQLLDSMKEIGSNCLNNEFNFFKRHICDANKEGMFLFRAARKLRQFLKMNSTGDFDLHLLKVSEGTTILLNCTGQVKGRKPAALGEAQPTKSLEENKSLKEQKKLNDLCFLKRLLQEIKTCWNKILMGTKEHSGTTNTVAAYNLTWKSTNFKTILEWEPKPVNQVYTVQISTKSGDWKSKCFYTTDTECDLTDEIVKDVKQTYLARVFSYPAGNVESTGSAGEPLYENSPEFTPYLETNLGQPTIQSFEQVGTKVNVTVEDERTLVRRNNTFLSLRDVFGKDLIYTLYYWKSSSSGKKTAKTNTNEFLIDVDKGENYCFSVQAVIPSRTVNRKSTDSPVECMGQEKGEFRE[about 120 residues not spelt out]
chain 2: IPPHVQKSVNNDMIVTDNNGAVKFPQLCKFCDVRFSTCDNQKSCMSNCSITSICEKPQEVCVAVWRKNDENITLETVCHDPKLPYHDFILEDAASPKCIMKEKKKPGETFFMCSCSSDECNDNIIFSEEYNTSNPDGGGGSGGGGSGGGGSIPPHVQKSVNNDMIVTDNNGAVKFPQLCKFCDVRFSTCDNQKSCMSNCSITSICEKPQEVCVAVWRKNDENITLETVCHDPKLPYHDFILEDAASPKCIMKEKKKPGETFFMCSCSSDECNDNIIFSEEYNTSNPDITCPPPMSVEHADIWVKSYSLYSRERYICNSGFKRKAGTSSLTECVLNKATNVAHWTTPSLKCIR

Biological target: TGFβ1 (R&D systems) (UniProt P01137 partial chain)
Experiment: cell-based or functional assay

Sequence of UniProt P01137 (P01137 279-390 limits assumed): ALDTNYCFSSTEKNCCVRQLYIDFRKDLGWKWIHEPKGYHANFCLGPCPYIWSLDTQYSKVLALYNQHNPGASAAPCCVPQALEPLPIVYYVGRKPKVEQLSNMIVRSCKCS

Point of comparison: B2, “IC50, inhibition of TGFβ1 activity in HEK-Blue TGFβ cells” value 0.217 nM. Against it:
- B1 — 42-fold higher, 9.13 nM
- B3 — 5.3-fold higher, 1.14 nM

Source: patent publication US20240124543A1 (published 2024)
